Values joined by “and” are separate entries in the source; they are usually repeats but may differ in a detail not shown here. Identical values can stand only once. About 1,200 (2.5%) of roughly 48,000 compounds were called active. Roughly 2% stayed inconclusive and do not appear here.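 How the source made its calls: active means activation of at least 60% and not above a set upper limit (about 1 call in 100 departs from these limits); inconclusive means activation of 40% to 60%, or above that upper limit; inactive means activation under 40%.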 The list shows a part of the results.

Data on 82 compounds can be found in PubChem BioAssay AID1346428 (National Center for Advancing Translational Sciences (NCATS), 2018).

Chain of UniProt O75388 (O75388 whole entry, looked up, the tested form may be a part): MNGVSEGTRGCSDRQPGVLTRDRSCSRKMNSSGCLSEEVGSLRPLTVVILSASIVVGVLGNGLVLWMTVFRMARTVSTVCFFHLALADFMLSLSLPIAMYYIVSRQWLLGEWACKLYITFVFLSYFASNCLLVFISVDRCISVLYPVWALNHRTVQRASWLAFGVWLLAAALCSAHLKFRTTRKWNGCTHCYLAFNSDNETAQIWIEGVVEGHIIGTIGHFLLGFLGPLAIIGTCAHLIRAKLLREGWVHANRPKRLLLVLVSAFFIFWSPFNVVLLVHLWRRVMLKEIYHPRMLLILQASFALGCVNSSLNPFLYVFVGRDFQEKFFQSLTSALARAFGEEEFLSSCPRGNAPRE

The target of this assay is Probable G-protein coupled receptor 32 (Homo sapiens) (UniProt O75388). Nature of the assay: qHTS for Agonists of Human Resolvin D1 Receptor DRV1. The settings on record: CHO-K1 GPR32 beta-arrestin PathHunter luminescence, 90 min; at 76.9 µM; stronger effect = higher value; zero percent set by DMSO-only wells. A digest of the protocol:
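PathHunter enzyme-fragment complementation, CHO-K1 GPR32 stable line; 2,500 cells/well, overnight attach; cpd 90 min 37 °C 5% CO2; detection reagent 1 h RT; chemiluminescence. DMSO = EC0.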
In the case of `CC(C)c1ccc(NS(=O)(=O)c2cc(Br)cc3c2N(C(=O)C2CC2)CC3)cc1`, the activation is inactive: 2.84%. In the case of `CCOc1ccc(NC(=O)C(=O)NCCc2csc(-c3ccc(C(F)(F)F)cc3)n2)cc1` it was inactive: -14.7%; in that of `NNC(=O)CP(=O)(c1ccccc1)c1ccccc1`, inactive: -1.74%.

For the compound `COc1ccc(CCNC(=O)c2ccc3c(c2)N(Cc2ccccc2)CCS3)cc1OC`, the activation was inactive: -4.63%. The value for `Cc1ccc(C(=O)N2CCn3c4c(c5cc(C)ccc53)CCCC42)cc1` (configuration not stated) was inactive: -29.9%; that for `COC(=O)c1ccc(NC(=O)CN(C)S(=O)(=O)c2ccc(Br)s2)cc1` was inactive: 27.4%; that for `COc1cccc(-n2c(SCc3ccc(F)cc3)nc3c([nH]c4ccccc43)c2=O)c1` was inactive: -46.9%.

Regarding `Cc1ccc2nc(-c3ccc(Cl)s3)c(Nc3ccc4c(c3)OCCO4)n2c1`, the activation was inactive: -30.1%. The value for `Cc1nn2c(C)c(C(=O)NCc3ccc(OC(C)C)cc3)cnc2c1-c1ccc(F)cc1` was inactive: -2.32%. The value for `COc1ccc(Cn2ccnc2SCC(=O)Nc2nnc(C)s2)cc1` was inactive: -16.3%; that for `Cc1ccc(CNC(=O)c2ccc(N3CCCC3)c(NC(=O)Nc3ccc(F)c(Cl)c3)c2)cc1` was inactive: -13.5%.

As to `Cc1ccc2c(c1)-c1c(c(C(=O)N3CCN(c4cc(C)ccc4C)CC3)nn1C)CS2`, the activation was inactive: -33.1%. `CCn1c(=O)cc(OCC(=O)N2CCN(c3cccc(C)c3C)CC2)c2ccccc21`: the activation was inactive: 2.25%.

In the case of `Cc1cccc(NC(=O)CN2C(=O)C(c3ccc(F)cc3)=NC23CCCCCC3)c1`, the activation is inactive: -5.05%. For `COc1cccc(CNC(=O)CN2C(=O)COc3ccc(S(=O)(=O)N4CCOCC4)cc32)c1`, the activation was inactive: -17.7%. In the case of `CCN(CCCNC(=O)c1nn(-c2ccc(C)cc2)c(=O)c2c1c1ccccc1n2C)c1cccc(C)c1` it was inactive: 1.01%. The value for `Cc1cc(C)c(NC(=O)Cn2c(=O)n(Cc3ccc(C(=O)NCc4ccc5c(c4)OCO5)cc3)c(=O)c3ccccc32)c(C)c1` was inactive: -9.6%; that for `Cc1ccc(CNC(=O)C(C)n2nc(C)c3sc4ccccc4c3c2=O)cc1` (configuration not stated) was inactive: -24.2%; that for `CNCCNS(=O)(=O)c1cccc2cnccc12` was inactive: -11.2%.

As for `COc1ccc(NC(=O)Cn2c(=O)c3ccccc3n3nncc23)c(OC)c1`, the activation was inactive: 5.95%.

With `CC(=O)c1c(C)oc2c1cc(NS(=O)(=O)c1ccc(C(C)(C)C)cc1)c1ccccc12`, the activation was inactive: 25.7%.

Consider `COC(=O)c1ccccc1NC(=O)CN1C(=O)COc2ccc(Cl)cc21`, for which the activation is inactive: -2.05%. The value for `COc1ccc(NC(=O)c2cc(S(=O)(=O)N3CCCC3)ccc2OC)cc1` was inactive: -17%. The value for `CCNC(=O)[C@H]1O[C@@H](n2cnc3c(N)nc(NCCc4ccc(CCC(=O)O)cc4)nc32)[C@H](O)[C@@H]1O` was inactive: 0.779%. The value for `COc1cccc(C(=O)Oc2c(Sc3ccc(C)cc3)c(C)nn2C(C)(C)C)c1OC` was inactive: -7.99%; that for `CC(C)Cc1nn2c(=O)cc(COC(=O)c3ccc(NC(=O)C4CCCCC4)cc3)nc2s1` was inactive: -10%.

As to `CCOc1ccccc1NC(=O)c1ccc(F)c(S(=O)(=O)N2CCN(c3ccc(F)cc3)CC2)c1`, the activation is inactive: -8%. In the case of `CCOc1ccc(C(=O)NCCSc2c(C)[nH]c3ccccc23)cc1OCC` it was inactive: -10.3%; in that of `CCOc1ccc(NC(=O)c2cc(C)nc3c2c(C)nn3-c2ccc(C)cc2)cc1`, inactive: -11%. The value for `Cc1cccc(C(=O)N2CCc3cc(CNC(=O)CSc4ccccc4)ccc32)c1` was inactive: -1.87%; that for `Cc1cccc(C)c1NC(=O)c1ccccc1C(=O)O` was inactive: -16.6%. In the case of `CCOc1ccc(C(=O)NCC(c2cccs2)S(=O)(=O)c2ccccc2)cc1` (configuration not stated) it was inactive: 21.5%. Take `COc1ccc(Nc2nc3ccc(Cl)cc3nc2-n2nc(C)cc2C)cc1`: the activation is inactive: -20.2%. In the case of `Cc1ccc2cccc(NC(=O)c3cccc4c(Br)cccc34)c2n1` it was inactive: -5.52%; in that of `COc1cccc(CNS(=O)(=O)c2ccc3c(c2)CC(C)N3C(=O)C2CCC2)c1` (configuration not stated), inactive: 10.9%. In the case of `O=C(NCc1cccc(Cl)c1)c1cc2c(s1)-c1ccccc1SC2` it was inactive: -11%; in that of `O=C(Cn1c(=O)n(-c2ccc(Cl)cc2)c(=O)c2c3c(sc21)CCCCC3)Nc1cccc(Cl)c1`, inactive: -4.09%. The value for `COc1ccc(C)cc1NC(=O)C(=O)NCC(c1cccnc1)N1CCN(c2ccccc2F)CC1` (configuration not stated) was inactive: -36.4%; that for `Cc1cc(C)c2nc(N3CCCC(C(=O)NCc4ccccc4F)C3)sc2c1` (configuration not stated) was inactive: -0.0112%; that for `COc1ccc(N2CCN(C(=O)c3ccc4c(c3)N(Cc3cccc(Cl)c3)C(=O)c3ccccc3S4(=O)=O)CC2)cc1` was inactive: -24.5%. As for `CCn1c(=O)n(-c2ccc3c(c2)OCO3)c2nc(-c3cccc(OC)c3OC)nc(C(N)=O)c21`, the activation is inactive: -1.99%. In the case of `CCCn1cc(S(=O)(=O)c2ccc(C)c(C)c2)c(=O)c2cc(F)c(N3CCC(C)CC3)cc21` it was inactive: 1.84%. The value for `CCOc1ccccc1N(C)C(=O)c1cc2c(s1)-c1ccccc1OC2` was inactive: -34.1%; that for `CCc1ccccc1NC(=O)Cn1c(=O)n(-c2cccc(C)c2)c(=O)c2c1c1cc(OC)ccc1n2C` was inactive: -7.92%. The value for `CC(C)OCCCNC(=O)Cc1ccc(NC(=O)N2CCCCc3ccccc32)cc1` was inactive: -6.94%; that for `CCOC(=O)CC(NC(=O)c1cc2c(=O)n3cccc(C)c3nc2s1)c1ccc(OCC)c(OC)c1` (configuration not stated) was inactive: -14.9%; that for `CCCCc1nc(SCC(=O)Nc2ccc(S(N)(=O)=O)cc2)n[nH]1` was inactive: 2.2%. Regarding `Cc1ccc(NC(=O)Cn2c(=O)n(CC(=O)NCCc3ccccc3)c(=O)c3ccccc32)cc1C`, the activation is inactive: 8.13%. The value for `Cc1ccc(S(=O)(=O)c2cn(CC(=O)Nc3ccc(F)cc3)c3cc4c(cc3c2=O)OCO4)cc1` was inactive: -9.94%; that for `COc1ccc(-c2noc(CCC(=O)Nc3cccc(C)c3C)n2)cc1OC` was inactive: 6.73%; that for `COc1cccc(NC(=O)C2CCN(S(=O)(=O)c3c(C)noc3C)CC2)c1` was inactive: -4.7%. In the case of `Cc1ccc(C(=O)COC(=O)c2cc(-c3cccs3)nc3ccccc23)cc1` it was inactive: -1.25%; in that of `CCc1cccc(NC(=O)Nc2cn(C)c(=O)c3ccccc23)c1`, inactive: -58.9%; in that of `COc1ccc(NC(=O)CN2CCN(Cc3ccccc3Cl)S2(=O)=O)cc1Cl`, inactive: 30.5%. In the case of `CC(C)NC(=O)c1ccc2c(c1)N(Cc1cccc(Cl)c1)C(=O)c1ccccc1S2=O` (configuration not stated) it was inactive: -10.3%; in that of `CCc1ccccc1NS(=O)(=O)c1ccc2c(c1)CCCN2C(=O)C1CCC1`, inactive: -8.83%; in that of `Cc1nn2c(=O)cc(COC(=O)c3ccccc3NC(=O)c3cccs3)nc2s1`, inactive: -10.4%. Turning to `COC(=O)c1sc2c(c1C)c(=O)n(-c1ccccc1)c(=O)n2CC(=O)Nc1cccc(C)c1`, the activation was inactive: -13.9%. In the case of `CCCN1C(=O)C(O)(CC(=O)c2ccc(C(C)C)cc2)c2ccccc21` (configuration not stated) it was inactive: -19.3%; in that of `O=c1[nH]sc2cc(Cl)ccc12`, inactive: 31.9%; in that of `CCc1cccc(NC(=O)CCc2c(C)nc3c(-c4ccccc4)c(C)nn3c2C)c1`, inactive: 2.6%. On to `CCN(C(=O)Cn1c(=O)oc2cc(S(=O)(=O)N3CCCCC3)ccc21)c1ccccc1`, for which the activation was inactive: -4.82%. In the case of `COc1cc(OC)c(NC(=O)N2CCC(CN3CCOCC3)CC2)cc1Cl` it was inactive: -12.5%. Take `CN1CCN(Cc2c(O)ccc3cc(-c4ccc(Cl)cc4)c(=O)oc23)CC1`: the activation is inactive: -1.66%. The value for `CCOc1cc(CNC(=O)C2CCN(c3nc4ccccc4[nH]3)CC2)cc(OCC)c1OCC` was inactive: -8.33%; that for `COc1cccc(CC(=O)Nc2ccc(-c3nc4ccccc4s3)cc2Cl)c1` was inactive: -6.47%. In the case of `Cc1cc(C)cc(N2CCn3c2nc2c3c(=O)n(C/C=C/c3ccccc3)c(=O)n2C)c1` it was inactive: -0.0641%; in that of `CCN(CC)CCCC(C)Nc1ccnc2cc(Cl)ccc12` (configuration not stated), inactive: -8.85% and inactive: 15.2%; in that of `Cc1c(C)c2cc3c(c(C)c2oc1=O)OCN(CCc1ccccc1)C3`, inactive: -6.25%. For `COc1cccc(CNC(=O)c2c(C)oc3ncnc(N4CCOCC4)c23)c1`, the activation was inactive: 2.61%. The value for `COc1ccc(N2CCN(C(=O)C3Cc4ccccc4N3C(C)=O)CC2)cc1` (configuration not stated) was inactive: 1.96%. For `CS(=O)(=O)c1ccc([C@@H](O)[C@@H](CF)NC(=O)C(Cl)Cl)cc1`, the activation was inactive: -15.8%. In the case of `Cc1ccc(C)c(NC(=O)CCOc2ccccc2)c1` it was inactive: -16.1%. In the case of `Cc1c(Cl)cccc1NC(=O)CSc1ccc(-c2ccccn2)nn1`, the activation was inactive: -10.8%.

`Cc1ccc2nc(-c3ccc(F)cc3)c(NC(C)(C)CC(C)(C)C)n2c1`: the activation was inactive: -5.69%. The value for `CCOC(=O)CC(NC(=O)c1cc2cc(Br)cc(OC)c2oc1=O)c1ccc(OC)cc1` (configuration not stated) was inactive: -14.1%. The value for `CCOC(=O)C(=O)NCC(c1cccnc1)N1CCN(c2ccccc2)CC1` (configuration not stated) was inactive: -7.49%; that for `COc1ccc(N2CC(NC(=O)COc3ccc(F)cc3)CC2=O)cc1OC` (configuration not stated) was inactive: -7.29%. The value for `CCOCCn1c(C2CCN(CCc3ccc(C(C)(C)C(=O)O)cc3)CC2)nc2ccccc21` was inactive: -5.31%; that for `Cn1cnc2c(=O)oc3ccc(S(=O)(=O)N4CCN(c5cccc(C(F)(F)F)c5)CC4)cc3c21` was inactive: -7.69%. As to `CC(C)(C)OC(=O)N1CCC(c2c(C(=O)Nc3ccc4c(c3)OCCO4)cnn2-c2ccc(F)cc2F)CC1`, the activation was inactive: -25.5%. The value for `COc1ccc(S(=O)(=O)NCCc2nnc3ccc(SCC(=O)Nc4cc(C)cc(C)c4)nn23)cc1` was inactive: -21.9%.
